Reference: PubChem BioAssay AID504339 (National Center for Advancing Translational Sciences (NCATS), 2011)
The campaign covered roughly 390,000 compounds. About 17,000 (4.4%) were called active. The shares of active, inactive and inconclusive entries below differ from those in the screen. Calls come from the whole dose curve; as a rule, active = well fitted inhibition curve with a large enough effect; inconclusive = small, poorly fitted or top-dose-only effect; inactive = no such curve, though single readings can be large or run the other way. Potencies beside an inconclusive call are fits to weak or partial responses and may not hold up.

biological target: Lysine-specific demethylase 4A (Homo sapiens) (UniProt O75164); experiment: qHTS Assay for Inhibitors of JMJD2A-Tudor Domain; settings: AlphaScreen JMJD2A-Tudor / H3K4me3 peptide binding; series mostly up to 114 µM; note: nearly all actives have a fitted effect of over 50% in size
Chain of UniProt O75164 (O75164 whole entry, looked up, the tested form may be a part): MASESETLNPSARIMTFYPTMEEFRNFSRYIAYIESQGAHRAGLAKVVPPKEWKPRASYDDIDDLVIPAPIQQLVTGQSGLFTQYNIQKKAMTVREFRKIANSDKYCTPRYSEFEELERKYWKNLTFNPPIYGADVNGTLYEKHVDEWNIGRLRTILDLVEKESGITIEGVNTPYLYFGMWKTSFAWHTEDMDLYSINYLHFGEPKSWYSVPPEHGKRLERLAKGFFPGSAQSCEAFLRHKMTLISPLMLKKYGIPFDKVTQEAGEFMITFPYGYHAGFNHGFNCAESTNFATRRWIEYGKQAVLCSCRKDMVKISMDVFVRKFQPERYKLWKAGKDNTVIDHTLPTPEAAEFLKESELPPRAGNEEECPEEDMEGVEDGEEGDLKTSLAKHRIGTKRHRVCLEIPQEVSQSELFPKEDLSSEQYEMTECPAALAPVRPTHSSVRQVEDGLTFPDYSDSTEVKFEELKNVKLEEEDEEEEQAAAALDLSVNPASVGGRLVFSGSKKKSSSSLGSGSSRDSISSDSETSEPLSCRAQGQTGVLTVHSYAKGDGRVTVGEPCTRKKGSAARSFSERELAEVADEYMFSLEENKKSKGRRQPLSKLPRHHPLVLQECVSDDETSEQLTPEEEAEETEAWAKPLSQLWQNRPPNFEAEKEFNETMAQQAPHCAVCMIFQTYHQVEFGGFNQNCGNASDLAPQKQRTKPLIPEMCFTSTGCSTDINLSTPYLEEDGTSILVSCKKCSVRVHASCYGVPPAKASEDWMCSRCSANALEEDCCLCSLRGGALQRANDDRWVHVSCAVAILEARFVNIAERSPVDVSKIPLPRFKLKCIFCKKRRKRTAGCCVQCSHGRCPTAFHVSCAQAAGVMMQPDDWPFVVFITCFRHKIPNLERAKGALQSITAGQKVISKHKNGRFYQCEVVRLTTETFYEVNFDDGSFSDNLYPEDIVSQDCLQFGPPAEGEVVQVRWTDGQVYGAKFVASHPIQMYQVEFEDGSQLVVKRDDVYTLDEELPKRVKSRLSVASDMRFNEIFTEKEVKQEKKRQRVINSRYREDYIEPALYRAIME
Potency is the fitted concentration of half-maximal effect; tags give direction and shape of the fitted curve.

Potency, inconclusive:
FC(F)(F)C1CCCN(c2nsc3ccccc23)C1 (stereo unspecified) 0.708 µM [inhibitor, full curve, poor fit]
CC(C)(C)/C(O)=C/c1nc2cc(Cl)ccc2oc1=O 15.8 µM [inhibitor, partial curve, poor fit]
COc1cccc(NC(=S)NC(=O)/C=C/c2ccco2)c1 50.1 µM [inhibitor, partial curve]
COc1cc(/C=C2\SC(=S)N(CC(=O)Nc3cccnc3)C2=O)cc(OC)c1OC 15.8 µM [inhibitor, full curve, poor fit]
COc1ccc(C(=O)c2c(C(F)(F)F)oc3c2C(=O)c2ccccc2C3=O)cc1 39.8 µM [inhibitor, partial curve]
O=C(NCCc1ccccc1)c1ccc(CSc2nc3cccnc3n2Cc2ccccc2)cc1 20 µM [inhibitor, partial curve]
CCc1nc(N2CCN(Cc3ccc4c(c3)OCO4)CC2)c2oc3ccccc3c2n1 25.1 µM [inhibitor, partial curve]
O=C(Nc1nc2c(Cl)cccc2s1)c1ccc([N+](=O)[O-])o1 89.1 µM [inhibitor, partial curve]
CCOc1ccc(N2CC(c3nc4ccccc4n3CCOc3ccc(OC)cc3)CC2=O)cc1 (stereo unspecified) 44.7 µM [inhibitor, partial curve]
COc1ccc(C(=O)CSc2nnc(CN3CCCCC3)n2-c2ccc(Cl)cc2)cc1OC 39.8 µM [inhibitor, single point]
COc1ccccc1NC(=O)/C(N=Nc1ccc(C)c(S(=O)(=O)Nc2ccccc2Cl)c1)=C(\C)O 12.6 µM [inhibitor, full curve, poor fit]
CC(Nc1ncnc2ccc(-c3ccc4c(c3)OCO4)cc12)c1ccco1 (stereo unspecified) 79.4 µM [inhibitor, partial curve]
Cc1ccc2nc(SCc3nc4cc(Cl)ccc4c(=O)[nH]3)[nH]c2c1 79.4 µM [inhibitor, partial curve]
CCOc1ccc(-c2nnc(SCC(=O)Nc3ccc4c(c3)c3ccccc3n4CC)n2N)cc1 79.4 µM [inhibitor, partial curve]
COc1ccc(OC)c(NC(=O)CSc2nnc(Cc3cccn3C)n2CCc2ccccc2)c1 56.2 µM [inhibitor, partial curve]
NC(=O)c1cc(N)ccc1N1CCCC1 79.4 µM [inhibitor, partial curve]
COC(=O)c1c(C)n(-c2ccc(OC)cc2)c2ccc(O)cc12 56.2 µM [inhibitor, partial curve]
CCOC(=O)C1CCN(c2cc3c(cc2NC(=O)c2ccccc2Cl)n(C)c(=O)n3C)CC1 28.2 µM [inhibitor, partial curve]
Cn1ncc(C#N)c1NC(=O)C1CC(c2ccccc2Cl)=NO1 (stereo unspecified) 15.8 µM [inhibitor, full curve]
O=C(c1cc(-c2cccs2)nc2ccccc12)N1CCN(c2ccccc2O)CC1 50.1 µM [inhibitor, partial curve]
O=C(Nc1ccccc1N1CCCCC1)c1ccc(N2C(=O)c3ccccc3C2=O)cc1 89.1 µM [inhibitor, single point]
CCn1c(C(=O)N2CCC(C(=O)NCc3ccc4c(c3)OCO4)CC2)cc2sccc21 79.4 µM [inhibitor, partial curve]
CC(C)c1ccc(NNC(=O)C2CCC2)cc1 25.1 µM [inhibitor, full curve, poor fit]
Cc1ccccc1NC(=S)N/N=C/C(C)c1ccccc1 (stereo unspecified) 39.8 µM [inhibitor, single point]
CCC(C)/C(C)=N/Nc1ccc(S(N)(=O)=O)cc1[N+](=O)[O-] (stereo unspecified) 44.7 µM [inhibitor, partial curve]
O=C1NC(=O)/C(=C\c2ccc(Br)o2)S1 56.2 µM [inhibitor, partial curve]
COc1cc(Cn2ncc3c4sc(C)cc4n(C)c3c2=O)cc(OC)c1 50.1 µM [inhibitor, partial curve]
C[n+]1cccc(C(=O)NNC(=O)C23CC4CC(CC(C4)C2)C3)c1 25.1 µM [inhibitor, partial curve]
CCOC(=O)c1sc(N2C(=O)C(O)=C(C(=O)c3ccco3)C2c2ccc(C)o2)nc1C (stereo unspecified) 50.1 µM [inhibitor, partial curve]
CC(=O)c1sc(N/N=C2\CC3CCC2(C)C3(C)C)nc1C (stereo unspecified) 50.1 µM [inhibitor, partial curve]
CCCCCCC/C=N/Nc1nnc(Cc2ccccc2)c(=O)[nH]1 0.631 µM [inhibitor, full curve, poor fit]
COc1cc(/C=C/C(=O)/C=C(O)/C=C/c2ccc(O)c(OC)c2)ccc1O 50.1 µM [inhibitor, partial curve]
COc1ccc2c(c1)C(NS(=O)(=O)OCC(Cl)(Cl)Cl)CCC2 (stereo unspecified) 79.4 µM [inhibitor, partial curve]
Cc1cc(NCCCn2ccnc2)n2nc(-c3ccc(Cl)cc3)cc2n1 44.7 µM [inhibitor, partial curve]
COc1ccc(S(=O)(=O)c2cc3cc(C(C)(C)C)cc(O)c3oc2=O)cc1 35.5 µM [inhibitor, full curve]
O=C1c2ccccc2-c2onc3ccc(Oc4ccccc4)c1c23 39.8 µM [inhibitor, partial curve]
CC1(C)CC(=O)C/C(=N/NC(=O)COc2ccc3ccccc3c2Br)C1 56.2 µM [inhibitor, partial curve]

Potency, inactive:
Cc1csc(/N=C/c2ccc([N+](=O)[O-])cc2)n1
COCCN(C(C)=O)c1nnc(-c2cnccn2)s1
COc1ccc(S(=O)(=O)Nc2ccccc2)cc1
O=C(NCC1(N2CCOCC2)CCCCC1)c1ccc(S(=O)(=O)Nc2ccccc2F)cc1
COC(=O)c1ccccc1S(=O)(=O)N1CCC(C(=O)OCc2cccc(OC)c2OC)CC1
CCOc1ccc(S(=O)(=O)Nc2nc3ccccc3nc2Cl)cc1
CCOc1ccccc1OCCCC(=O)N(CC)CC(=O)Nc1ccc(NC(C)=O)cc1
COc1ccc(/C=N/Nc2nc(C)cc(-c3ccccc3)n2)c(OC)c1
Cc1cc(C(=O)OCC(=O)Nc2cccc(S(N)(=O)=O)c2)c(C)o1
CC(=O)N1CCc2cc(S(=O)(=O)NC(Cc3ccccc3)C(=O)NC3CCCCCC3)ccc21 (stereo unspecified)
Cc1cccc(-c2ccc3c(c2)C2CC3CCN2)c1 (stereo unspecified)
Cc1cc2nc(-c3ccc(NC(=O)c4ccc(OCC(C)C)cc4)cc3)oc2cc1C
COc1ccccc1NC(=O)C(C)OC(=O)C1CC(=O)N(c2ccc3c(c2)OCCO3)C1 (stereo unspecified)
Cc1ccc(-c2c(C(=O)N/N=C/c3ccco3)nnn2-c2nonc2N)cc1
COc1ccc2c(c1)c1c(c(=O)n(Cc3ccccc3)c(=O)n1CC(=O)Nc1ccccc1F)n2C
N#CC1(NC(=O)CN2C(=O)NC(c3ccccc3)(c3ccccc3)C2=O)CCCC1
CC(C)CC(O)(CC(C)C)C(=O)NNc1ccccc1
COc1ccccc1NC(=O)C(=O)c1cc(C)n(-c2cc(C)cc(C)c2)c1C
CCN=C(NCC)SC1CC(=O)N(CCc2ccccc2)C1=O (stereo unspecified)
CCCCNC(=O)c1ccc2c(c1)NC(=O)C(C(C)C)N2 (stereo unspecified)
CC(=O)COc1ccc2c(c1C)O/C(=C\c1ccco1)C2=O
CN(C(=O)COC(=O)c1cc(S(=O)(=O)N2CCOCC2)ccc1Cl)C1CCS(=O)(=O)C1 (stereo unspecified)
COc1ccc(-c2c(C#N)c(N)nc3c2CCC3)cc1
Cn1c(=O)cc(NCc2ccccc2)[nH]c1=O
CC(NS(=O)(=O)c1ccccc1)C(c1cccs1)N1CCOCC1 (stereo unspecified)

Potency, active:
COCCCNC(=S)NNC(=S)Nc1ccc(OC)cc1 1.78 µM
CC(C)(C)c1ccc(O)c(O)c1 12.6 µM
C/C(=N\NC(=O)c1ccc(F)cc1)c1ccccn1 35.5 µM
O=C(O)c1cccc(-c2ccc(/C=c3/sc4nc5ccccc5n4c3=O)o2)c1 22.4 µM
C#CCSc1nsc(SCC#C)c1C#N 56.2 µM
CC(=O)NC(c1ccco1)c1cc(F)c2cccnc2c1O (stereo unspecified) 56.2 µM
CC(C)CC(=O)Nc1ccc(C(=O)NNC(=S)NC(=O)C2CCCCC2)cc1 89.1 µM
CC1=NN(c2ccc(S(=O)(=O)O)cc2C)C(=O)C1 50.1 µM
O=C1OC(c2ccc3ccccc3c2O)(c2ccc3ccccc3c2O)c2ccccc21 31.6 µM
S=c1[nH]nc(-c2cc(-c3ccccc3)n[nH]2)n1/N=C/c1ccc(Cl)c(Cl)c1 50.1 µM
CCC1(C)CN=C(c2ccccc2)NC1 (stereo unspecified) 35.5 µM
COc1ccc(N2COC3c4cccc5cccc(c45)C32)cc1 (stereo unspecified) 63.1 µM
O=C1c2cccc3cccc(c23)C(=O)N1CCCc1n[nH]c(=S)n1-c1ccccc1 12.6 µM
CN1CCN(C(c2ccc(Br)cc2)c2cc(Cl)c3cccnc3c2O)CC1 (stereo unspecified) 50.1 µM
